According to the RNAGym collection of RNA variant scans (doi:10.7554/elife.90254):
The source gives no read counts; variants with many changes may rest on few reads.

B1: LINE1-full (parent)
chain: UACGUAGGUGGUUUUCCCCUGAUAGUGCUAAGGGGGCCUGGAAGUUUGGACUGGGCAGAGCUCAACACAGCGUGGCAAAGUGGCUGUGGCUAGACUGCCUCUCUGGAUUCCUCGUCACUCAGCAGGGCAUCUCUGAGAGAAAUGCC

Variants of: B1
Test: self-cleavage, relative activity (ratio to wild type); higher = more cleavage; in vitro, sequencing; the parent is a self-cleaving ribozyme

Variant	self-cleavage
U20C U52A C103A U132G	1.28
U20C U52C A142G	0.63
U20C U52C G72A	2.12
U20C U52C U62C	0.09
U20C U52C U130C	0
U20C U52G A78G	1.15
U20C U62A A64G A78G	0.42
U20C U62A U109G A129G	0.09
U20C U62C A92G U143C	0
U20C U62C G93A A141G	0
U20C U73A U81A	1.94
U20C U81A A117G	1.4
U20C U81C U132C	1.23
U20C U85A C101U U132C	0.12
U20C U85C A94U A124U	0.14
U20C U87A A121G	0.15
U20C U87A U104C	0.14
U20C U87A U108C	0.1
U20C U87C A136U	0.4
U20C U87C C103U A107G U115A	0.36
U20C U87C U119A	0.16
U20C U87G A138G	0.14
U20C U96A A138U A140U	0.14
U20C U96C A117G A129G A141U	0.54

Variant	self-cleavage
U20C U96C U119C	0.63
U20C U100A A124G	0
U20C U100C G127A	1.96
U20C U102C A107G	1.77
U20C U108C A124C	1.41
U20C U112A G114A U143A	1.13
U20C U115C A121G	1.31
U20C U132C A136C	0.66
U20G A22G U104A	0.92
U20G A22U A124G	1.87
U20G A24G A117G G126A	1.39
U20G A31G A43G C68U A94G	0
U20G A43G G53A	0.57
U20G A43G U45C U52C U132C U134A A140G	0
U20G A50G G80U	1.09
U20G A50U U100G	0.65
U20G A59U A117G	1.84
U20G A65C U100C A138G	0.48
U20G A65G U108C A129G	2.04
U20G A67G U112A	0
U20G A67U U102C U143C	0.22
U20G A117G A124G	0.31
U20G C37G U47C U143C	0.68
U20G G36U A124G A140U	1.06

Variant	self-cleavage
U20G G40A A77G	1.08
U20G G53A U112A U119C U130C	1.46
U20G U29A U47A	0.96
U20G U39A A107U A117G A136G	1.77
U20G U46G U52C A59G	0
U20G U47C A67U U100C	0.32
U20G U62C C101A C146U	0.18
U20G U62C G82A	0.07
U20G U87A U104C G126A	0.13
G21A A22G A59G	0.06
G21A A31G C51U A121U A138U	0.7
G21A A59G U102C U104G	0
G21A A77G A129G	2.51
G21A A78G U81C	1.76
G21A G32U C37U A50G U109A U130C	0.52
G21A U23A U62C U134C	0.04
G21A U47C U62C	0.04
G21A U62C U96C	0.13
G21A U73A U96C U115A A138G	0.11
G21A U73C G74U U108A	1.92
G21A U73G C131U	0.57
G21A U85A A124G	0.1
G21A U85C U112C A142G	0.1
G21A U104A C116U	0.79

Variant	self-cleavage
G21A U104C A141G	1.23
G21U A24G U85A	0.08
G21U A24G U100A U112C	0.97
G21U A67G U91C	0.11
G21U A107G U119C A138G	1.36
G21U G32A U39A	1.02
G21U U47A A140G	0.27
A22C A31U U47A C56G A57C	0
A22C A43G A77G	1.53
A22C A43G C84U U104A A136G	0.06
A22C A43G U45A A64U A124G	0.91
A22C A77G C120U	1.99
A22C A79G U85A U134C	0.11
A22C C71U C131G	0.92
A22C G34U A138G	2.06
A22C U52A A64G	0.17
A22C U62C A92G U132C	0
A22C U81C C103A	1.53
A22C U85A G105C	0.06
A22C U100A U115C	1.17
A22G A24C U39C C68U U81A G88A U115A	0.06
A22G A24G C95A C123A	0.05
A22G A24U A69U U102A	0.09
A22G A30G A50U A59G G114U	0.36

Variant	self-cleavage
A22G A30G A92G C99U	0.44
A22G A30G A121G	1.21
A22G A30G U39C C51U A129U A136G	0.97
A22G A31C C37G	0.8
A22G A42G A124U	1.31
A22G A42G A142G	1.36
A22G A42G U46A A57U	0.23
A22G A43G A67G A142G U143A	0.48
A22G A43G A67G C76U U96C	0
A22G A43G A124G A136U	1.07
A22G A43G U47G U62A A142G	0.19
A22G A43G U134C A142G	1.56
A22G A43U U73C G89A U112C	0
A22G A50G A69G	0.5
A22G A50G C51U G58U A78G U91C	0.03
A22G A50G U115A A140U	1.32
A22G A50U A69U A138U	0.03
A22G A57G A59G A65U A94G C113A U119A	0
A22G A57G A64U A77G	0.42
A22G A57G A64U A92G	0.77
A22G A57G A136U	0.82
A22G A57G C98U U108C A136G	0.64
A22G A57G U73A A78G	0.27
A22G A57G U73A A107G	0

Variant	self-cleavage
A22G A57G U102A	0.16
A22G A57U A79G U91C U108C	0
A22G A57U C146U	0.11
A22G A57U G89U A117G	0
A22G A57U U73C U85A A141G	0.07
A22G A57U U132A	0.22
A22G A59G A78G U112C	0
A22G A59G U62C A136G	0.19
A22G A59U U132C	1.3
A22G A64C U104A U112A	0.55
A22G A64G A69G U91A A124G	0
A22G A64G A94G C123U	0.12
A22G A64G A107U U134C	0.29
A22G A64G U81A U115C	0.54
A22G A64U G127C	0.48
A22G A65G G72A U73A A78G A117G	0
A22G A65G U143A	0
A22G A65U A79U	0.15
A22G A69G C111A A141G	0.9
A22G A69G U87A U119C	0.04
A22G A69U U115C	0.12
A22G A77G C110A U132A	1.79
A22G A77U A124G A141G	0.82
A22G A78C U85C A124G	0.54

Variant	self-cleavage
A22G A78G A79U U104A G106A A124G	1.15
A22G A78G A94G U132A	0
A22G A78G A136G	0.57
A22G A78U A124G	2
A22G A78U A142G	1.87
A22G A94G G122U U134C	0.35
A22G A94U A129G	0.47
A22G A94U U132C	0.41
A22G A117G U119C	0.71
A22G A121G A124C	2.3
A22G A142C U143C	1.59
A22G C28A G54A A79G	0.32
A22G C28G U81A U134A	0.95
A22G C28U U73A U108A U119C	0.6
A22G C38A U119C A124G	1
A22G C51U G105A	0.95
A22G C61G U143A	0.09
A22G C76U A142G	2.78
A22G C98A C128U U132C	0.25
A22G C99U U119G	0.81
A22G C128U A140G	0.78
A22G G25A U26C A57G A64U U130C C145A	0.32
A22G G25A U143A	0.48
